Results from the supplement of paper PMC4604168 (melanoma cell lines).
This is one part of the list. Repeats are few or missing, and single values can be far off.

What was measured:
Assay in all cases: cell count relative to DMSO control; melanoma cells; higher = more viable cells
Conditions in all cases: library dose: low library concentration; 72 h
[1] = tested on: MZ2-MEL
[2] = tested on: MeWo
[3] = tested on: RPMI7951
[4] = tested on: RVH-421
[5] = tested on: SkMel28
[6] = tested on: SkMel2
[7] = tested on: SkMel30
[8] = tested on: UACC62
[9] = tested on: SkMel5
[10] = tested on: UACC257
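Note: cell number obtained by counting DAPI-stained nuclei in high-throughput microscope images with image analysis software, screen run in 1,536-well plates.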

O=C(Nc1cc(C(F)(F)F)cc(C(F)(F)F)c1)c1cc(Cl)ccc1O + O=C(O)c1ccc2c(c1)nc(Nc1cccc(Cl)c1)c1ccncc12 [CX4945] (first compound 0.016 µM, partner dose 0.4 µM)
cell count [1]: 96.6%
cell count [2]: 118%
cell count [3]: 104%
cell count [4]: 139%
cell count [5]: 108%
cell count [6]: 112%
cell count [7]: 122%
cell count [8]: 100%

O=C(Nc1cc(C(F)(F)F)cc(C(F)(F)F)c1)c1cc(Cl)ccc1O + NC1(c2ccc(-c3nc4ccn5c(=O)[nH]nc5c4cc3-c3ccccc3)cc2)CCC1 [MK2206] (first compound 0.016 µM, partner dose 0.4 µM)
cell count [1]: 90.9%
cell count [2]: 81.8%
cell count [3]: 91.1%
cell count [4]: 82.6%
cell count [5]: 75.2%
cell count [6]: 89.4%
cell count [7]: 75.9%
cell count [8]: 82.7%

O=C(Nc1cc(C(F)(F)F)cc(C(F)(F)F)c1)c1cc(Cl)ccc1O + OCc1c[nH]c2ccccc12 [Indole-3-carbinol] (first compound 0.016 µM, partner dose 0.8 µM)
cell count [1]: 88.1%
cell count [2]: 100%
cell count [3]: 90.9%
cell count [4]: 99.6%
cell count [5]: 84.2%
cell count [6]: 88.8%
cell count [7]: 98.8%
cell count [8]: 76.5%

Cc1cc(N2CCOCC2)cc2[nH]c(-c3c(NC[C@@H](O)c4cccc(Cl)c4)cc[nH]c3=O)nc12 + O=C(O)C(=O)Nc1sc2c(c1C(=O)O)CCNC2 [TCS401] (first compound 0.2 µM, partner dose 1.66667 µM)
cell count [1]: 105%
cell count [2]: 97.9%
cell count [3]: 101%
cell count [4]: 90.1%
cell count [5]: 99.9%
cell count [7]: 91%
cell count [9]: 94.5%
cell count [10]: 88.3%
cell count [8]: 89.5%

O=C(Nc1ccccc1)c1cc([N+](=O)[O-])ccc1Cl + CC(C)CCN1c2nc(Nc3cc(F)c(O)c(F)c3)ncc2N(C)C(=O)C1C [BID1870] (first compound 2 µM, partner dose 0.2 µM)
cell count [1]: 99.8%
cell count [2]: 80.3%
cell count [3]: 125%
cell count [4]: 102%
cell count [5]: 104%
cell count [7]: 103%
cell count [9]: 88.6%
cell count [10]: 88.3%
cell count [8]: 91.3%

Cc1cc(N2CCOCC2)cc2[nH]c(-c3c(NC[C@@H](O)c4cccc(Cl)c4)cc[nH]c3=O)nc12 + COC(=O)c1sccc1S(=O)(=O)Nc1ccc(Nc2ccccc2)cc1OC [GSK0660] (first compound 0.2 µM, partner dose 1 µM)
cell count [1]: 94.8%
cell count [2]: 99.7%
cell count [3]: 101%
cell count [4]: 116%
cell count [5]: 97.6%
cell count [7]: 88.2%
cell count [9]: 94.6%
cell count [10]: 97.7%
cell count [8]: 78.4%

O=C(Nc1ccccc1)c1cc([N+](=O)[O-])ccc1Cl + c1cc(-c2cnn3cc(-c4ccc(OCCN5CCCCC5)cc4)cnc23)ccn1 [Dorsomorphin] (first compound 2 µM, partner dose 0.4 µM)
cell count [1]: 88.4%
cell count [2]: 87.1%
cell count [3]: 88.6%
cell count [4]: 112%
cell count [5]: 97.9%
cell count [7]: 116%
cell count [9]: 90.2%
cell count [10]: 87.8%
cell count [8]: 85.9%

Cc1cc(N2CCOCC2)cc2[nH]c(-c3c(NC[C@@H](O)c4cccc(Cl)c4)cc[nH]c3=O)nc12 + c1cc(-c2cnn3cc(-c4ccc(OCCN5CCCCC5)cc4)cnc23)ccn1 [Dorsomorphin] (first compound 0.2 µM, partner dose 0.4 µM)
cell count [1]: 99.6%
cell count [2]: 95.7%
cell count [3]: 95%
cell count [4]: 101%
cell count [5]: 96.7%
cell count [7]: 97.4%
cell count [9]: 93.3%
cell count [10]: 71.7%
cell count [8]: 106%

Cn1nnc2c(C(N)=O)ncn2c1=O [temozolomide] + COc1cc2ncnc(Nc3ccc(Oc4ccccc4)cc3)c2cc1OC [SrcI1] (first compound 2 µM, partner dose 2 µM)
cell count [1]: 85.7%
cell count [2]: 105%
cell count [3]: 116%
cell count [4]: 98.4%
cell count [5]: 94.7%
cell count [7]: 89%
cell count [9]: 99.7%
cell count [10]: 115%
cell count [8]: 81.7%

O=C(Nc1ccccc1)c1cc([N+](=O)[O-])ccc1Cl + COc1ccc(COc2ccc(Cc3cnc(N)nc3N)cc2OC)cc1 [GW2580] (first compound 2 µM, partner dose 1 µM)
cell count [1]: 103%
cell count [2]: 96.3%
cell count [3]: 82.4%
cell count [4]: 97.8%
cell count [5]: 105%
cell count [7]: 116%
cell count [9]: 85.5%
cell count [10]: 83.4%
cell count [8]: 95.7%

Cc1cc(N2CCOCC2)cc2[nH]c(-c3c(NC[C@@H](O)c4cccc(Cl)c4)cc[nH]c3=O)nc12 + COc1ccc(-c2ccc3c(N4CCOCC4)nc(N4C[C@@H](C)O[C@@H](C)C4)nc3n2)cc1CO [KU0063794] (first compound 0.2 µM, partner dose 0.02 µM)
cell count [1]: 96.6%
cell count [2]: 86%
cell count [3]: 99.7%
cell count [4]: 97.2%
cell count [5]: 95.7%
cell count [7]: 80.8%
cell count [9]: 92.1%
cell count [10]: 70.3%
cell count [8]: 91.1%

Cn1nnc2c(C(N)=O)ncn2c1=O [temozolomide] + O=C(O)C(=O)Nc1sc2c(c1C(=O)O)CCNC2 [TCS401] (first compound 2 µM, partner dose 1.66667 µM)
cell count [1]: 89.6%
cell count [2]: 107%
cell count [3]: 108%
cell count [4]: 92.1%
cell count [5]: 79.7%
cell count [7]: 97.5%
cell count [9]: 105%
cell count [10]: 92.4%
cell count [8]: 76%

Cc1cc(N2CCOCC2)cc2[nH]c(-c3c(NC[C@@H](O)c4cccc(Cl)c4)cc[nH]c3=O)nc12 + CCN(CC)CCCCNc1ncc2cc(-c3cc(OC)cc(OC)c3)c(NC(=O)NC(C)(C)C)nc2n1 [PD173074] (first compound 0.2 µM, partner dose 0.1 µM)
cell count [1]: 104%
cell count [2]: 93.6%
cell count [3]: 102%
cell count [4]: 120%
cell count [5]: 107%
cell count [7]: 84.9%
cell count [9]: 91.5%
cell count [10]: 74.4%
cell count [8]: 87.8%

O=C(Nc1ccccc1)c1cc([N+](=O)[O-])ccc1Cl + COc1cc(N2CCC(N3CCN(C)CC3)CC2)ccc1Nc1ncc(Cl)c(Nc2ccccc2S(=O)(=O)C(C)C)n1 [NVP-TAE684] (first compound 2 µM, partner dose 0.08 µM)
cell count [1]: 92.4%
cell count [2]: 96.3%
cell count [3]: 90.1%
cell count [4]: 78.9%
cell count [5]: 103%
cell count [7]: 94.6%
cell count [9]: 78%
cell count [10]: 83.2%
cell count [8]: 95.4%

Cc1cc(N2CCOCC2)cc2[nH]c(-c3c(NC[C@@H](O)c4cccc(Cl)c4)cc[nH]c3=O)nc12 + CCc1ccc(CCOc2ccc(CC3SC(=O)NC3=O)cc2)nc1 [pioglitazone] (first compound 0.2 µM, partner dose 2 µM)
cell count [1]: 102%
cell count [2]: 93%
cell count [3]: 122%
cell count [4]: 97.1%
cell count [5]: 83.7%
cell count [7]: 78.7%
cell count [9]: 84.9%
cell count [10]: 83.1%
cell count [8]: 76.5%

Cn1nnc2c(C(N)=O)ncn2c1=O [temozolomide] + CCCCCCCCCCCC1=C(O)C(=O)C=C(O)C1=O [Embelin] (first compound 2 µM, partner dose 1.2 µM)
cell count [1]: 85.8%
cell count [2]: 103%
cell count [3]: 106%
cell count [4]: 104%
cell count [5]: 88.6%
cell count [7]: 85.4%
cell count [9]: 109%
cell count [10]: 120%
cell count [8]: 80.9%

Cn1nnc2c(C(N)=O)ncn2c1=O [temozolomide] + c1cc(-c2cnn3cc(-c4ccc(OCCN5CCCCC5)cc4)cnc23)ccn1 [Dorsomorphin] (first compound 2 µM, partner dose 0.4 µM)
cell count [1]: 84.4%
cell count [2]: 97.3%
cell count [3]: 99.3%
cell count [4]: 102%
cell count [5]: 72%
cell count [7]: 85.2%
cell count [9]: 85%
cell count [10]: 89.8%
cell count [8]: 69.6%

Cn1nnc2c(C(N)=O)ncn2c1=O [temozolomide] + O=S(=O)(c1ccccc1)N(CC(F)(F)F)c1ccc(C(O)(C(F)(F)F)C(F)(F)F)cc1 [T0901317] (first compound 2 µM, partner dose 1.4 µM)
cell count [1]: 87.2%
cell count [2]: 121%
cell count [3]: 113%
cell count [4]: 92.7%
cell count [5]: 68.9%
cell count [7]: 95.7%
cell count [9]: 82.7%
cell count [10]: 84.1%
cell count [8]: 81%

Cc1cc(N2CCOCC2)cc2[nH]c(-c3c(NC[C@@H](O)c4cccc(Cl)c4)cc[nH]c3=O)nc12 + O=C1NC(=O)/C(=C/c2ccc(-c3ccc(F)cc3O)o2)S1 [AS252424] (first compound 0.2 µM, partner dose 1 µM)
cell count [1]: 106%
cell count [2]: 110%
cell count [3]: 102%
cell count [4]: 150%
cell count [5]: 92.6%
cell count [7]: 71.3%
cell count [9]: 98.6%
cell count [10]: 94.8%
cell count [8]: 117%

O=C(Nc1ccccc1)c1cc([N+](=O)[O-])ccc1Cl + O=C1NC(=O)/C(=C/c2ccc(-c3ccc(F)cc3O)o2)S1 [AS252424] (first compound 2 µM, partner dose 1 µM)
cell count [1]: 105%
cell count [2]: 90.8%
cell count [3]: 137%
cell count [4]: 88.8%
cell count [5]: 95.6%
cell count [7]: 107%
cell count [9]: 111%
cell count [10]: 103%
cell count [8]: 72.2%

O=C(Nc1ccccc1)c1cc([N+](=O)[O-])ccc1Cl + COC(=O)c1sccc1S(=O)(=O)Nc1ccc(Nc2ccccc2)cc1OC [GSK0660] (first compound 2 µM, partner dose 1 µM)
cell count [1]: 93.1%
cell count [2]: 93%
cell count [3]: 105%
cell count [4]: 96.8%
cell count [5]: 99.7%
cell count [7]: 97.6%
cell count [9]: 97.9%
cell count [10]: 82.6%
cell count [8]: 90.2%

O=C(Nc1ccccc1)c1cc([N+](=O)[O-])ccc1Cl + Oc1cc(-c2nc(-c3ccccc3)[nH]c2-c2ccncc2)ccc1Cl [L779450] (first compound 2 µM, partner dose 0.2 µM)
cell count [1]: 71%
cell count [2]: 89.1%
cell count [3]: 108%
cell count [4]: 94.4%
cell count [5]: 87.9%
cell count [7]: 75.4%
cell count [9]: 112%
cell count [10]: 92.5%
cell count [8]: 78.9%

O=C(Nc1ccccc1)c1cc([N+](=O)[O-])ccc1Cl + COc1ccc2c(c1)CCC1C2CCC2(C)C(NCCCCCCN3C(=O)C=CC3=O)CCC12 [U73122] (first compound 2 µM, partner dose 0.4 µM)
cell count [1]: 95.5%
cell count [2]: 95.3%
cell count [3]: 94.6%
cell count [4]: 89%
cell count [5]: 98.7%
cell count [7]: 106%
cell count [9]: 84.6%
cell count [10]: 87.6%
cell count [8]: 84.5%
